# The whole screen tested about 320,000 compounds, of which about 7,600 (2.4%) were called active. The shares of active, inactive and inconclusive entries below differ from those in the screen. The call rests on the fitted dose curve; in most records, active means well fitted activation curve with a large enough effect; inconclusive means small, poorly fitted or top-dose-only effect; inactive means no such curve, though single readings can be large or run the other way. Potencies of inconclusive entries are left out as doubtful fits.
# Assay: qHTS Assay for NPC1 Promoter Activators; further: nearly all actives have a fitted effect of over 60% in size;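 on activation: reporter is driven by a mutant NPC1 promoter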
# Conditions: Huh7 NPC1 promoter luciferase reporter, 24 h; series mostly up to 9.22 µM
# Outline: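 Compounds in DMSO were transferred onto Huh7 NPC1-luciferase reporter cells pre-incubated 2 h; after 24 h at 37 °C, Amplite reagent was dispensed and luminescence recorded 10 min later.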
# Potency means the concentration at half of the fitted maximal effect; tags describe the fitted curve by direction and shape.
row,Compound,Potency
1,Fc1cccc(NC(=S)N2CCc3ccccc32)c1,"inconclusive [activator, partial curve]"
2,COc1ccc(C(=O)Nc2nc3ccccc3s2)cc1,active: 0.631 µM
3,Cc1noc(C)c1CSCC(=O)NC1=NCCS1,inactive
4,NC(=O)c1c(NC(=O)c2ccccc2)sc2c1CCC2,active: 2 µM
5,O=C(Nc1ccc(Cl)cn1)c1ccc2ccccc2n1,"inconclusive [activator, single point]"
6,CSCCNC(=O)c1ccc(C(C)(C)C)cc1,active: 3.98 µM
7,Cc1c(NC(=S)NC(=O)c2cc3ccccc3o2)cccc1C(=O)O,active: 3.98 µM
8,COc1cccc(/C=N/NC(=O)NC2CCCCC2)c1O,"inconclusive [activator, partial curve]"
9,COc1ccc(C(c2sc3nc(C)nn3c2O)N2CC(C)OC(C)C2)cc1OC (configuration not stated),"inconclusive [activator, single point]"
10,Cc1cccc2sc(NC(=O)Cn3c(C)csc3=O)nc12,inactive
11,COc1ccc(-c2cc(C(=O)Nc3cccc(Cl)c3)no2)cc1,active: 1 µM
12,COCCN1Cc2c(sc(C)c2C)N(C(=O)c2ccccc2)C1,"inconclusive [activator, partial curve]"
13,Cc1ccc[n+](CC(=O)c2ccc(Br)cc2)c1,inactive
14,On1c(-c2ccc(Cl)cc2)nc2ccccc21,"inconclusive [activator, partial curve]"
15,O=C(O)c1cccc(NC(=S)NC(=O)c2ccc3ccccc3c2)c1,"inconclusive [activator, full curve]"
16,CC1CCc2sc3ncnc(N4CCN(CCO)CC4)c3c2C1 (configuration not stated),"inconclusive [activator, single point]"
17,N/C(Cc1ccc([N+](=O)[O-])cc1)=N\OC(=O)c1ccco1,inactive
18,CC(C)Oc1ccc(C(=O)Nc2ncn[nH]2)cc1,"inconclusive [activator, partial curve]"
19,Cc1occc1C(=O)Nc1sc2c(c1C(N)=O)CCCCC2,"inconclusive [activator, partial curve]"
20,COc1ccc(-c2nnc(SCc3ccc(C(=O)O)cc3)n2N)cc1,inactive
21,Cc1cccc(NC(=O)C2COc3ccccc3O2)c1 (configuration not stated),"inconclusive [activator, single point]"

row,Compound,Potency
1,CC(=O)N(/N=C1/C(=O)Nc2ccccc21)c1ccccc1,"inconclusive [activator, single point]"
2,Clc1ccc(CSc2nc3ccncc3[nH]2)cc1,active: 0.631 µM
3,COc1cccc(CNc2ccc3c(c2)nc(C)n3C)c1OC,"inconclusive [activator, partial curve]"
4,O=C(NC(=S)Nc1cccc2[nH]ncc12)c1ccccc1,active: 3.16 µM
5,O=C(NCCCN1CCCC1=O)C(=O)Nc1cccc(F)c1,"inconclusive [activator, partial curve]"
6,O=C1c2ccccc2-n2c1nc1ccccc1c2=O,"inconclusive [activator, partial curve]"
7,Cc1ccc(/C=N/NC(=O)c2ccc3c(c2)OCCO3)s1,"inconclusive [activator, single point]"
8,CCN1CCN(c2ncnc3c2cnn3-c2ccccc2)CC1,"inconclusive [activator, partial curve]"
9,CC(C)(C)C(=O)N1CCN(c2nc3ccc(Br)cc3s2)CC1,"inconclusive [activator, single point]"
10,Clc1ccc(N/N=C/c2ccncc2)cc1Cl,"inconclusive [activator, partial curve]"
11,O=C(Nc1sc(-c2ccccc2)cc1C(=O)O)c1ccccc1,active: 3.16 µM
12,C/C(=N\Nc1ccc(F)cc1F)c1ccc(N2CCOCC2)cc1,"inconclusive [activator, partial curve]"
13,CCOC(=O)C1CCCN(C(=O)c2cc(-c3ccc(C)cc3)nc3ccccc23)C1 (configuration not stated),inactive
14,Nn1c(SCC(=O)Nc2ccccc2Oc2ccccc2)nnc1C1CC1,inactive
15,CCC(=O)Nc1cccc(-c2cnc3ccccc3n2)c1,"inconclusive [activator, partial curve]"
16,Cc1ccc(SC(C)C(=O)NC2CC2)cc1 (configuration not stated),inactive
17,CC(=O)Nc1nc(-c2ccccc2)c(-c2ccccc2)o1,inactive
18,O=C(Nc1ccccc1)N1CCc2ccccc21,active: 1.58 µM
19,COc1ccc(C)cc1S(=O)(=O)N(CC(=O)O)c1ccc(C)cc1,inactive
20,O=C(CN1C(=O)NC2(CCCC2)C1=O)Nc1cccc(Cl)c1,inactive
21,COc1ccc(C(c2nnnn2CCc2ccccc2)N2CCN(C3CCCC3)CC2)cc1 (configuration not stated),"inconclusive [activator, partial curve]"

row,Compound,Potency
1,N/C(=N\O)c1ccc(NC(=O)c2cccs2)cc1,"inconclusive [activator, single point]"
2,COC(=O)c1cccc(-n2c(=O)n(Cc3ccccc3)c(=O)c3[nH]cnc32)c1C,inactive
3,CC(C)CC1c2[nH]c3ccccc3c2CCN1C(=O)c1cnccn1 (configuration not stated),active: 3.55 µM
4,CCOCC(=O)Nc1ccc2c(c1)OCCO2,"inconclusive [activator, single point]"
5,Cc1cc(=O)nc2c3ccccc3n(C(C)C(=O)NCCC(C)C)n12 (configuration not stated),inactive
6,Cc1ccc(N=Cc2c(O)[nH]c3ccccc23)c([N+](=O)[O-])c1,"inconclusive [activator, single point]"
7,O=C(O)c1ccc2c3n(nc2c1)-c1ccc(Cl)cc1CO3,"inconclusive [activator, full curve]"
8,CSc1ccc(NC(=O)Nc2cc(C)ccn2)cc1,active: 0.501 µM
9,COc1ccccc1NS(=O)(=O)c1ccc2oc(SC)nc2c1,inactive
10,Cc1ccc(OCC(=O)O/N=C(\N)c2ccccn2)cc1,active: 3.98 µM
11,COCCCNC(=S)N1CCN(c2nc(C)nc3sc4c(c23)CCCC4)CC1,inactive
12,O=C(CN1C(=O)c2ccccc2S1(=O)=O)N1CCCCC1,"inconclusive [activator, partial curve]"
13,c1cnc2nc(-c3ccc4c(c3)OCO4)cn2c1,"inconclusive [activator, partial curve]"
14,COc1ccc(Cc2nnc(SCC(=O)N(C)CC(=O)Nc3ccc(C)cc3)o2)cc1,inactive
15,CCCN1CCC(=O)N([C@H](CSc2ccc(C)cc2)c2ccccc2)CC1,"inconclusive [activator, single point]"
16,CCCN1CN=C(Nc2nc3ccccc3o2)NC1,"inconclusive [activator, single point]"
17,CCC(C)(C)NC(=O)C(c1ccc(OC)cc1)N(C(=O)CCC(=O)Nc1cc(C)on1)c1ccc2c(c1)OCO2 (configuration not stated),inactive
18,COc1cc(OC)cc(C(=O)NC(=S)Nc2nc(-c3cc4ccccc4o3)cs2)c1,inactive
19,CC(=O)Cc1nsc(NC(=O)c2ccc(Br)o2)n1,inactive
20,Cc1ccc(NC(=O)COC(=O)C2C3CC4OC(=O)C2C4C3)cc1Cl (configuration not stated),"inconclusive [activator, single point]"
21,COCCn1c(=O)[nH]c2cc(C(=O)OC)ccc2c1=O,inactive

row,Compound,Potency
1,Fc1ccccc1NC(=S)N1CCN(Cc2ccccc2)CC1,inactive
2,O=C(COC(=O)c1ccc(-n2cnnn2)cc1)c1ccc(Br)cc1,inactive
3,Cn1c(NCc2ccccc2O)nc2ccccc21,active: 3.98 µM
4,O=C(Nc1ncccc1O)c1ccc(OCC2CCCO2)cc1 (configuration not stated),active: 0.794 µM
5,Cc1nc(-c2ccc(C(=O)Nc3cccc(F)c3)cc2)cs1,active: 0.0891 µM
6,Cc1cccc(CC(C)NC(=O)c2cc(COc3ccc(C)c(C)c3)on2)n1 (configuration not stated),"inconclusive [activator, single point]"
7,Cn1c(Cl)c(C(=O)Nc2ccc(Cl)cc2)c2ccccc21,"inconclusive [activator, single point]"
8,COc1ccc(CNC(=O)c2cc(-c3ccccc3OC)on2)cc1,inactive
9,O=C(CSc1nnc(-c2ccccc2Cl)o1)N1CCCCC1,"inconclusive [activator, partial curve]"
10,Cc1nc(N)sc1-c1csc(N(C)c2ccc(O)cc2)n1,"inconclusive [activator, single point]"
11,Cc1ccccc1NC(=O)c1ccc2c(c1)OCCO2,"inconclusive [activator, single point]"
12,O=C(CSc1nncs1)NC(=O)Nc1ccc2c(c1)OCCO2,"inconclusive [activator, single point]"
13,CCOC(=O)C1CCCN(c2ncnc3c2cnn3-c2ccc(OC)cc2)C1 (configuration not stated),"inconclusive [activator, partial curve]"
14,Cc1ccsc1/C=C/c1ccc2ccccc2n1,active: 2 µM
15,CC(OC(=O)c1ccc([N+](=O)[O-])o1)C(=O)Nc1nc(-c2ccc(F)c(F)c2)cs1 (configuration not stated),"inconclusive [activator, partial curve]"
16,CC(=O)Nc1ccc(S(=O)(=O)N2CCN(CCN3CCOCC3)CC2)cc1Cl,inactive
17,COCCN(CCOC)c1ncnc2c1cnn2-c1ccc(Cl)cc1,"inconclusive [activator, single point]"
18,COc1cc(NS(=O)(=O)c2ccc(NC(=O)CCC(=O)O)cc2)nc(OC)n1,inactive
19,OC(CNc1ncnc2sccc12)c1ccccc1 (configuration not stated),"inconclusive [activator, partial curve, poor fit]"

# From PubChem BioAssay AID485313 (National Center for Advancing Translational Sciences (NCATS), 2010)
